{"source": "the supplement of paper PMC8728848", "experiment_in_all_cases": "glycan array binding signal (z-score within array); higher = stronger binding", "conditions_in_all_cases": "glycan notation: IUPAC condensed, linker removed", "key": {"[1]": {"target": "Gal(b1-3)GlcNAc(b1-2)Man(a1-3)[Gal(b1-3)GlcNAc(b1-2)Man(a1-6)]Man(b1-4)GlcNAc(b1-4)[Fuc(a1-6)]GlcNAc", "in_short": "(§1)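 Columns mapping to the same glycan were averaged after glycan names were converted to IUPAC-condensed notation. The data come from 3228 arrays in the Consortium for Functional Glycomics database, limited to those with an available protein sequence. Binding is reported as a within-array Z-score averaged across arrays of one protein sequence and across linkers.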"}, "[2]": {"target": "Gal(b1-3)GlcNAc(b1-2)Man(a1-3)[GlcNAc(b1-4)][Gal(b1-3)GlcNAc(b1-2)Man(a1-6)]Man(b1-4)GlcNAc(b1-4)GlcNAc", "in_short": "as §1"}, "[3]": {"target": "Gal(b1-3)GlcNAc(b1-2)[Gal(b1-3)GlcNAc(b1-6)]Man(a1-6)[Gal(b1-3)GlcNAc(b1-2)Man(a1-3)]Man(b1-4)GlcNAc(b1-4)GlcNAc", "in_short": "as §1"}, "[4]": {"target": "Gal(b1-3)GlcNAc(b1-3)Gal(b1-3)GlcNAc", "in_short": "as §1"}, "[5]": {"target": "Gal(b1-3)GlcNAc(b1-3)Gal(b1-4)Glc", "in_short": "as §1"}, "[6]": {"target": "Gal(b1-3)GlcNAc(b1-3)Gal(b1-4)GlcNAc", "in_short": "as §1"}, "[7]": {"target": "Gal(b1-3)GlcNAc(b1-3)Gal(b1-4)GlcNAc(b1-2)Man(a1-3)[Gal(b1-3)GlcNAc(b1-3)Gal(b1-4)GlcNAc(b1-2)Man(a1-6)]Man(b1-4)GlcNAc(b1-4)GlcNAc", "in_short": "as §1"}, "[8]": {"target": "Gal(b1-3)GlcNAc(b1-3)Gal(b1-4)GlcNAc(b1-2)[Gal(b1-3)GlcNAc(b1-3)Gal(b1-4)GlcNAc(b1-6)]Man(a1-6)[Gal(b1-3)GlcNAc(b1-3)Gal(b1-4)GlcNAc(b1-2)Man(a1-3)]Man(b1-4)GlcNAc(b1-4)[Fuc(a1-6)]GlcNAc", "in_short": "as §1"}, "[9]": {"target": "Gal(b1-3)GlcNAc(b1-3)Gal(b1-4)GlcNAc(b1-3)Gal(b1-4)GlcNAc(b1-2)[Gal(b1-3)GlcNAc(b1-3)Gal(b1-4)GlcNAc(b1-3)Gal(b1-4)GlcNAc(b1-6)]Man(a1-6)[Gal(b1-3)GlcNAc(b1-3)Gal(b1-4)GlcNAc(b1-3)Gal(b1-4)GlcNAc(b1-2)Man(a1-3)]Man(b1-4)GlcNAc(b1-4)[Fuc(a1-6)]GlcNAc", "in_short": "as §1"}, "[10]": {"target": "Gal(b1-3)GlcNAc(b1-3)Gal(b1-4)GlcNAc(b1-6)[Gal(b1-3)GlcNAc(b1-3)]Gal(b1-4)Glc", "in_short": "as §1"}, "[11]": {"target": "Gal(b1-3)GlcNAc(b1-3)Gal(b1-4)[Fuc(a1-3)]GlcNAc", "in_short": "as §1"}, "[12]": {"target": "Gal(b1-3)GlcNAc(b1-3)Gal(b1-4)[Fuc(a1-3)]GlcNAc(b1-6)[Gal(b1-3)GlcNAc(b1-3)]Gal(b1-4)Glc", "in_short": "as §1"}, "[13]": {"target": "Gal(b1-3)GlcNAc(b1-3)GalNAc", "in_short": "as §1"}, "[14]": {"target": "Gal(b1-3)GlcNAc(b1-6)Gal(b1-4)GlcNAc", "in_short": "as §1"}, "[15]": {"target": "Gal(b1-3)GlcNAc(b1-6)GalNAc", "in_short": "as §1"}, "[16]": {"target": "Gal(b1-3)GlcNAc(b1-6)[Gal(b1-3)]GalNAc", "in_short": "as §1"}, "Gal(b1-3)GlcNAc6S": {"target": "Gal(b1-3)GlcNAc6S", "in_short": "as §1"}, "[17]": {"target": "Gal(b1-3)[Fuc(a1-4)]GlcNAc", "in_short": "as §1"}, "[18]": {"target": "Gal(b1-3)[Fuc(a1-4)]GlcNAc(b1-2)Man", "in_short": "as §1"}, "[19]": {"target": "Gal(b1-3)[Fuc(a1-4)]GlcNAc(b1-2)Man(a1-3)[Gal(b1-3)[Fuc(a1-4)]GlcNAc(b1-2)Man(a1-6)]Man(b1-4)GlcNAc(b1-4)[Fuc(a1-6)]GlcNAc", "in_short": "as §1"}, "[20]": {"target": "Gal(b1-3)[Fuc(a1-4)]GlcNAc(b1-3)Gal(b1-3)[Fuc(a1-4)]GlcNAc", "in_short": "as §1"}, "[21]": {"target": "Gal(b1-3)[Fuc(a1-4)]GlcNAc(b1-3)Gal(b1-4)[Fuc(a1-3)]GlcNAc", "in_short": "as §1"}, "[22]": {"target": "Gal(b1-3)[Fuc(a1-4)]GlcNAc(b1-6)GalNAc", "in_short": "as §1"}, "[23]": {"target": "Gal(b1-3)[GlcNAc(b1-6)]GalNAc", "in_short": "as §1"}, "[24]": {"target": "Gal(b1-3)[Neu5Ac(a2-6)]GalNAc", "in_short": "as §1"}, "[25]": {"target": "Gal(b1-3)[Neu5Ac(a2-6)]GlcNAc(b1-4)Gal(b1-4)Glc", "in_short": "as §1"}, "[26]": {"target": "Gal(b1-3)[Neu5Ac(b2-6)]GalNAc", "in_short": "as §1"}, "Gal(b1-4)Gal": {"target": "Gal(b1-4)Gal", "in_short": "as §1"}, "[27]": {"target": "Gal(b1-4)GalNAc(a1-3)[Fuc(a1-2)]Gal(b1-4)GlcNAc", "in_short": "as §1"}, "[28]": {"target": "Gal(b1-4)GalNAc(b1-3)[Fuc(a1-2)]Gal(b1-4)GlcNAc", "in_short": "as §1"}, "Gal(b1-4)Glc": {"target": "Gal(b1-4)Glc", "in_short": "as §1"}, "Gal(b1-4)Glc6S": {"target": "Gal(b1-4)Glc6S", "in_short": "as §1"}, "Gal(b1-4)GlcNAc": {"target": "Gal(b1-4)GlcNAc", "in_short": "as §1"}, "[29]": {"target": "Gal(b1-4)GlcNAc(a1-6)Gal(b1-4)GlcNAc", "in_short": "as §1"}, "Gal(b1-4)GlcNAc(b1-2)Man": {"target": "Gal(b1-4)GlcNAc(b1-2)Man", "in_short": "as §1"}, "[30]": {"target": "Gal(b1-4)GlcNAc(b1-2)Man(a1-3)Man(b1-4)GlcNAc(b1-4)GlcNAc", "in_short": "as §1"}, "[31]": {"target": "Gal(b1-4)GlcNAc(b1-2)Man(a1-3)[Gal(b1-4)GlcNAc(b1-2)Man(a1-6)]Man(b1-4)GlcNAc(b1-4)GlcNAc", "in_short": "as §1"}}, "note": "The other results are listed elsewhere or left out.", "data": [{"binder": "GS13455A-bfa-343-25-343 (Bacteroides fragilis) (protein) KDEIQIVDQDTSWQMDNKYIEEDIREQLGIDPFTDLVYLGYYGNPYTQLEAINDLVNTTLVGKNELSFKVKVTKPYKEDIKVNLMKEDKLVTDFPEMAEGIPLFPSENCTFEGGVLKAGELETTVKLTLKDVEKLNNLSGYVMAIKLTMEGSHEHLAIARTRSSYFVKLNLSIRLDNIDSSNKKIEGKGFNKEISFKSDIRPDKLGSLNDGNFTANNWYTSNANNYLTIILPEKQSLKGFRLDTNTSPSGSYMLKSCRVMVETPDGNWVNHGVFDRKSMDGIAYISFKKPVECTKVRFENMMAFNGRFSVDVNEVTAFR", "values": [{"measurement": "glycan array binding signal (z-score)", "setting": "[1]", "value": -0.245}, {"measurement": "glycan array binding signal (z-score)", "setting": "[2]", "value": -0.164}, {"measurement": "glycan array binding signal (z-score)", "setting": "[3]", "value": -0.302}, {"measurement": "glycan array binding signal (z-score)", "setting": "[4]", "value": 0.175}, {"measurement": "glycan array binding signal (z-score)", "setting": "[5]", "value": -0.08}, {"measurement": "glycan array binding signal (z-score)", "setting": "[6]", "value": -0.985}, {"measurement": "glycan array binding signal (z-score)", "setting": "[7]", "value": -0.115}, {"measurement": "glycan array binding signal (z-score)", "setting": "[8]", "value": -0.436}, {"measurement": "glycan array binding signal (z-score)", "setting": "[9]", "value": 0.279}, {"measurement": "glycan array binding signal (z-score)", "setting": "[10]", "value": -0.531}, {"measurement": "glycan array binding signal (z-score)", "setting": "[11]", "value": -0.093}, {"measurement": "glycan array binding signal (z-score)", "setting": "[12]", "value": -0.016}, {"measurement": "glycan array binding signal (z-score)", "setting": "[13]", "value": -0.585}, {"measurement": "glycan array binding signal (z-score)", "setting": "[14]", "value": -0.472}, {"measurement": "glycan array binding signal (z-score)", "setting": "[15]", "value": -0.419}, {"measurement": "glycan array binding signal (z-score)", "setting": "[16]", "value": -0.057}, {"measurement": "glycan array binding signal (z-score)", "setting": "Gal(b1-3)GlcNAc6S", "value": -1.03}, {"measurement": "glycan array binding signal (z-score)", "setting": "[17]", "value": -0.314}, {"measurement": "glycan array binding signal (z-score)", "setting": "[18]", "value": -0.66}, {"measurement": "glycan array binding signal (z-score)", "setting": "[19]", "value": 1.16}, {"measurement": "glycan array binding signal (z-score)", "setting": "[20]", "value": -0.691}, {"measurement": "glycan array binding signal (z-score)", "setting": "[21]", "value": 0.241}, {"measurement": "glycan array binding signal (z-score)", "setting": "[22]", "value": -0.551}, {"measurement": "glycan array binding signal (z-score)", "setting": "[23]", "value": -0.384}, {"measurement": "glycan array binding signal (z-score)", "setting": "[24]", "value": -0.443}, {"measurement": "glycan array binding signal (z-score)", "setting": "[25]", "value": 0.21}, {"measurement": "glycan array binding signal (z-score)", "setting": "[26]", "value": -0.532}, {"measurement": "glycan array binding signal (z-score)", "setting": "Gal(b1-4)Gal", "value": 0.086}, {"measurement": "glycan array binding signal (z-score)", "setting": "[27]", "value": -0.716}, {"measurement": "glycan array binding signal (z-score)", "setting": "[28]", "value": -0.366}, {"measurement": "glycan array binding signal (z-score)", "setting": "Gal(b1-4)Glc", "value": 0.422}, {"measurement": "glycan array binding signal (z-score)", "setting": "Gal(b1-4)Glc6S", "value": -0.264}, {"measurement": "glycan array binding signal (z-score)", "setting": "Gal(b1-4)GlcNAc", "value": -0.238}, {"measurement": "glycan array binding signal (z-score)", "setting": "[29]", "value": -0.1}, {"measurement": "glycan array binding signal (z-score)", "setting": "Gal(b1-4)GlcNAc(b1-2)Man", "value": -0.191}, {"measurement": "glycan array binding signal (z-score)", "setting": "[30]", "value": -0.425}, {"measurement": "glycan array binding signal (z-score)", "setting": "[31]", "value": 0.049}]}]}
